Binding data for nine molecules are collected here from article PMC5753878.

The chains behind the UniProt entries cited, without tags or fusion partners. Where a name states a change or a piece, a line headed by the entry shows the natural chain unless it says otherwise.
UniProt Q06163: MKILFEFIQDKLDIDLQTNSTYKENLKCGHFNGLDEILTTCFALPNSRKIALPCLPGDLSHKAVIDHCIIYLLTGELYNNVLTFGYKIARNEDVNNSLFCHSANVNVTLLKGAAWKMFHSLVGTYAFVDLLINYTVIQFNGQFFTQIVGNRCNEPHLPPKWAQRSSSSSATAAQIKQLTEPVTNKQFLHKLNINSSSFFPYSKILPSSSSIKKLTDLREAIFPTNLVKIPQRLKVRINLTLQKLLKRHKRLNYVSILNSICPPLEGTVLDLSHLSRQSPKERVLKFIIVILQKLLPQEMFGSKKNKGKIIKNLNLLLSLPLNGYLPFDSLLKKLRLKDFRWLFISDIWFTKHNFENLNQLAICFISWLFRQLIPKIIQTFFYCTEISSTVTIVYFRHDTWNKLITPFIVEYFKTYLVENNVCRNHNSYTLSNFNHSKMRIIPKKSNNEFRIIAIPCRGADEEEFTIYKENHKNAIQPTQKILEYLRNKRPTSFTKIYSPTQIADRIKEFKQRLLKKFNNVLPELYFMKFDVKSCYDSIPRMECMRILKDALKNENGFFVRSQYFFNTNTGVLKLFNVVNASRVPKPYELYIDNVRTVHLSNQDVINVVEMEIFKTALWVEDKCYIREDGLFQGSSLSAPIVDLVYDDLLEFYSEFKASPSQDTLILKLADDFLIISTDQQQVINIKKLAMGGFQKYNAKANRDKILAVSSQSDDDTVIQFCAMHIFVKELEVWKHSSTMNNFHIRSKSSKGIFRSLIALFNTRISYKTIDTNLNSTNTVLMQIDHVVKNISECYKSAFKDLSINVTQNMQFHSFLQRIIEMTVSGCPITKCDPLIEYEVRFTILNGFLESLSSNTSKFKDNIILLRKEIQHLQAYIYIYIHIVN
UniProt Q03096: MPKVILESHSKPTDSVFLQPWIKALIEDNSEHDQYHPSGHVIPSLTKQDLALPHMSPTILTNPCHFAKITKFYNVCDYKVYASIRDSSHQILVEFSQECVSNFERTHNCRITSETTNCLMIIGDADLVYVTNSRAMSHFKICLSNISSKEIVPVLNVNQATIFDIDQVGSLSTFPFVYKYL
UniProt P11978: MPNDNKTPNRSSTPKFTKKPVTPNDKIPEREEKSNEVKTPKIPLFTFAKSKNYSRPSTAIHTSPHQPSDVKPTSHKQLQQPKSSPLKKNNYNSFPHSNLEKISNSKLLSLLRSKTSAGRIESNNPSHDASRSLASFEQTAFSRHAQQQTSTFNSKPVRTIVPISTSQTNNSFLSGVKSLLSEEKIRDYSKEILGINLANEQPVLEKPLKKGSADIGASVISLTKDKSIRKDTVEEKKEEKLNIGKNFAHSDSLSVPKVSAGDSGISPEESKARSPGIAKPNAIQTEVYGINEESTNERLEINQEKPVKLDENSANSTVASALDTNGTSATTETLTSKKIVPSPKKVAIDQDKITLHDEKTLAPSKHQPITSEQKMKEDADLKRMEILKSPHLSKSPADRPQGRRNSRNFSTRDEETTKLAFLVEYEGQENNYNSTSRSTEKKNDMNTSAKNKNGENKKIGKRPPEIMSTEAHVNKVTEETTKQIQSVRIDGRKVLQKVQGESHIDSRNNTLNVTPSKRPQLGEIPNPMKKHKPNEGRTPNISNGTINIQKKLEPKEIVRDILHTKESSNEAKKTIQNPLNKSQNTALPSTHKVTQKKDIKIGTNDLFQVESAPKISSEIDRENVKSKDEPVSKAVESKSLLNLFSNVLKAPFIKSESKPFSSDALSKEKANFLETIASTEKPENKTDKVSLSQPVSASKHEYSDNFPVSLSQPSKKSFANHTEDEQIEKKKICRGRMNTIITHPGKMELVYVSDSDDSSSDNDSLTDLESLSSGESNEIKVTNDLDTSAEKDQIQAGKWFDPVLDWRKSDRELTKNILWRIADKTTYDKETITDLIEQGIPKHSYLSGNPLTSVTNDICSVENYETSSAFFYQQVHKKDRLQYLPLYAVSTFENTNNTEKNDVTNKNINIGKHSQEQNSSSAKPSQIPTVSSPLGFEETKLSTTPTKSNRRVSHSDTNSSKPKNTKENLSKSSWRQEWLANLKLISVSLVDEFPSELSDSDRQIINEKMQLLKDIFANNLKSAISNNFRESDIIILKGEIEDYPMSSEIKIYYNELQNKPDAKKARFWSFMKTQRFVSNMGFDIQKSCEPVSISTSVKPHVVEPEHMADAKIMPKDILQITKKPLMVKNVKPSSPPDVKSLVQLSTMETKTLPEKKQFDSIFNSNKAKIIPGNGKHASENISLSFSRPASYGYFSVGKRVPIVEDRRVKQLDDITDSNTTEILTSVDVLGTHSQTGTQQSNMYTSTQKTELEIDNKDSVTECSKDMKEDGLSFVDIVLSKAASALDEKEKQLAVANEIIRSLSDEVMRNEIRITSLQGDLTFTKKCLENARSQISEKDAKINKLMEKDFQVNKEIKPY

To fix the notation:
B1: Msp3 (protein, UniProt P47069 1-682)
chain: MNNSNEHRREEAGAANEQMPYNKAVKSAYADVLKDKMNREQEISLRAIKKGIYTDGGETDNYDMDKENDSAYEMFKKNLDFPLDQHNDDDDDDPYIEDNGQETDGYSDEDYTDEADKSFIEDSDSDSYDLESNSDFEENLESSGEAKKLKWRTYIFYGGLFFVFYFFGSFLMTTVKNNDLESHSSGATSSPGKSFSNLQKQVNHLYSELSKRDEKHSSELDKTVKIIVSQFEKNIKRLLPSNLVNFENDINSLTKQVETISTSMSELQRRNHKFTVENVTQWQDQLVKQLDTHLPQEIPVVINNSSSLLIIPELHNYLSALISDVIESPGIGTAGSAESRWEYDLNRYVKEILSNELQYIDKDYFIQEMNRRLQSNKQEIWEEITNRLETQQQQQQQQVQQDYSNVPQQYSSILMKRLIHQIYNSNQHQWEDDLDFATYVQGTKLLNHLTSPTWRQGSGVQPIELLTDSKQSSSTYWQCENEPGCSWAIRFKTPLYLTKISYMHGRFTNNLHIMNSAPRLISLYVKLSQTKEIKALQTLANQYGFGQHHKRDRNYIKIAKFEYRLTDSRIRQQMYLPPWFIQLKPLVRSIVFQVDENYGNKKFISLRKFIINGVTPQDLQIIENNEFPVLLGDTPEYGVTQNTDEGKRKVLLSKPPYASSSTSTKFHPASNVPSFGQDELDQ
B2: Ebs1 (protein, UniProt Q03466 1-884)
chain: MEPSNTQKEDLPTAFNGIKSQLNSILKSNQLFQDYALLNGFLAFVHSKLNAAILTSIESQCGKSFAADLDSFDQSSISSILDFSWESVHYPIFKWFQMWRNYILFEKENKKQQTKFIDFRKMNSKMLKFFKTVQNFYVNVINTVYKKYDISVLLPKRIIQDLKLSDIENTTNVGDILAVKTFNSSSPLAHLIPTLFHRCLLFLGTAYRYKTLLEEISNKYSISNFKKSLDFFRLASLVLPSAGETYSQAGAIFLQTGNLGIAVFNFVKGMMTKMPSPVSIKNFGALMVDNKSSLNRSLHTTIMNTYLQESKGPRTPAKEILEFYFLGLFGSVWSPTSWRDDTKPNQLNNGIKLRHLENALYETMSARYLNNIKTIFHNLIITIGGFHLLLKRRSDVSAKTLKDLRSNELDYLNFAFKYIAHILNDIVKESWSENPEVSEILGMVRIINCWIKANPMVLQYSQSNLEFVNALAYLINDIVKKKPSPSFSITEHIPKRTYWFEEDLMVKGLSFVNFQLSDFDDYEKILEMDHSLDRLIGNPPLCDKLSASSEMLLRLQAVVNISSQLLQNNNCGVEWSDNKSRYIFNKKIGFKETVKNSMKTSKQSNEKAKLQRKNKPSTTNGSISMADLERQMRSSSLDSFSPTMGYSGSSVPMAPDTFNVKPSGTITGNKVNVELLKIELSGQNADGAITNISPGYSNAAISSSNSTDESSFDLNNILSSMQQKHAEKSFAKSMQGVNEQIPANDVCHQAQRPMQGGLYSSQQPSSMSSLNSAYQNASMPPSASMVSYPYPFLNQQGQGVFPPYNAQNLQWQSEAYSLKSMNFANPTWLGDQYQTSAPSSAYAQAQRQMFQQPMQQDVGKYMQFPFDAQSNTDSMRGNSRNNMF
B3: Pif1 (protein, UniProt P07271 46-859)
chain: RSNNFIQAQLKHPSILSKEDLDLLSDSDDWEEPDCIQLETEKQEKKIITDIHKEDPVDKKPMRDKNVMNFINKDSPLSWNDMFKPSIIQPPQLISENSFDQSSQKKSRSTGFKNPLRPALKKESSFDELQNNSISQERSLEMINENEKKKMQFGEKIAVLTQRPSFTELQNDQDDSNLNPHNGVKVKIPICLSKEQESIIKLAENGHNIFYTGSAGTGKSILLREMIKVLKGIYGRENVAVTASTGLAACNIGGITIHSFAGIGLGKGDADKLYKKVRRSRKHLRRWENIGALVVDEISMLDAELLDKLDFIARKIRKNHQPFGGIQLIFCGDFFQLPPVSKDPNRPTKFAFESKAWKEGVKMTIMLQKVFRQRGDVKFIDMLNRMRLGNIDDETEREFKKLSRPLPDDEIIPAELYSTRMEVERANNSRLSKLPGQVHIFNAIDGGALEDEELKERLLQNFLAPKELHLKVGAQVMMVKNLDATLVNGSLGKVIEFMDPETYFCYEALTNDPSMPPEKLETWAENPSKLKAAMEREQSDGEESAVASRKSSVKEGFAKSDIGEPVSPLDSSVFDFMKRVKTDDEVVLENIKRKEQLMQTIHQNSAGKRRLPLVRFKASDMSTRMVLVEPEDWAIEDENEKPLVSRVQLPLMLAWSLSIHKSQGQTLPKVKVDLRRVFEKGQAYVALSRAVSREGLQVLNFDRTRIKAHQKVIDFYLTLSSAESAYKQLEADEQVKKRKLDYAPGPKYKAKSKSKSNSPAPISATTQSNNGIAAMLQRHSRKRFQLKKESNSNQVHSLVSDEPRGQDTEDHILE
B4: Est1-W87E-(myc)12 (protein, UniProt P17214 1-699)
chain: MDNEEVNEECMRLFFKNARAHLDKHLTSRLTCDENAYITFRCFLDGIHRKSTRFLEELLLKQENMYHNNNYERINDSVIPLVLKLLELQIHEPTLQWFEHWFHDIMRLSNRRKFRVFRIFQKKMIQFFKITHRYYYDIIEHLCAKYDMNSVISNALFAKLNLMQYTDGLSTHEKIILNTSNPLTFSIVISLQRCVINLGSTHFYKTLLNKPSNKPKSVEGFEKSIRYLNIASLYLPAVGDTYFQRAKIYLITGKFSLYFFELVRGALVRIPSKCALNNLKDFILTPDFPERRRLMKKLAILVSKDLKGEKSFFEGQIVLQFLSIVEHTLVPQSWNASRASNCWLLKEHLQMAALKYHSGNINVILENLAATMGSFDLMFTTRKSKEQKNKLKYADLSERQVFFLDLSFDFIANIIDVVIKPSWQKNMEDFRYLAIIRLLMCWIKSYRSILQYTHRHRKFCTSFALLLNDLINSPLNCSGNIYSHRPKRSYLFREDIIFREFSCINFALTDFNDDYVYDSPDMINNIIGCPTLTKVLSPKEECVLRIRSIIFSGMKFLEKNDTGVIWNASKYKFDLISPNIKIKRQIALSEISSKINVKTQQERVVSSRKVEAKRDEQQRKRAGKIAVTELEKQFANVRRTKKLSPLPEKDGVSSELVKHAASRGRKTITGPLSSDFLSYPDEAIDADEDITVQVPDTPT
B5: Est1-R485E-(myc)12 (protein, UniProt P17214 1-699)
chain: B4 chain with E87W, R485E
B6: Est1-R488E-(myc)12 (protein, UniProt P17214 1-699)
chain: B4 chain with E87W, R488E
B7: Est1-D510R-(myc)12 (protein, UniProt P17214 1-699)
chain: B4 chain with E87W, D510R
B8: Est1-F511D-(myc)12 (protein, UniProt P17214 1-699)
chain: B4 chain with E87W, F511D

Numbering of substitutions follows the chain as printed. In names and notes the source's numbering stands. These are yes or no findings as the source states them, for the method shown. In cells and extracts the contact can be indirect. Some results given as binding are weak or reduced against the parent protein; the word gives no strength. For part of these data: Sequences can lack the tags named with a protein.

One assay has as its target telomerase (S. cerevisiae) (UniProt P17214+Q06163+Q03096). Put plainly: co-IP; co-IP of telomerase with factors encoded by nonessential genes (Figure S6 in File S1); bait not told.
For Sir4 (from UniProt P11978 1-1358), the binding result is “no binding”.
The same measure, in the same setting: the value for B1 was “no binding”; that for B2 was “no binding”; that for B3 was “no binding”.

The next assay has as its target T1, Cdc13 tagged with (FLAG)3 (S. cerevisiae) (UniProt P32797).
T1 sequence: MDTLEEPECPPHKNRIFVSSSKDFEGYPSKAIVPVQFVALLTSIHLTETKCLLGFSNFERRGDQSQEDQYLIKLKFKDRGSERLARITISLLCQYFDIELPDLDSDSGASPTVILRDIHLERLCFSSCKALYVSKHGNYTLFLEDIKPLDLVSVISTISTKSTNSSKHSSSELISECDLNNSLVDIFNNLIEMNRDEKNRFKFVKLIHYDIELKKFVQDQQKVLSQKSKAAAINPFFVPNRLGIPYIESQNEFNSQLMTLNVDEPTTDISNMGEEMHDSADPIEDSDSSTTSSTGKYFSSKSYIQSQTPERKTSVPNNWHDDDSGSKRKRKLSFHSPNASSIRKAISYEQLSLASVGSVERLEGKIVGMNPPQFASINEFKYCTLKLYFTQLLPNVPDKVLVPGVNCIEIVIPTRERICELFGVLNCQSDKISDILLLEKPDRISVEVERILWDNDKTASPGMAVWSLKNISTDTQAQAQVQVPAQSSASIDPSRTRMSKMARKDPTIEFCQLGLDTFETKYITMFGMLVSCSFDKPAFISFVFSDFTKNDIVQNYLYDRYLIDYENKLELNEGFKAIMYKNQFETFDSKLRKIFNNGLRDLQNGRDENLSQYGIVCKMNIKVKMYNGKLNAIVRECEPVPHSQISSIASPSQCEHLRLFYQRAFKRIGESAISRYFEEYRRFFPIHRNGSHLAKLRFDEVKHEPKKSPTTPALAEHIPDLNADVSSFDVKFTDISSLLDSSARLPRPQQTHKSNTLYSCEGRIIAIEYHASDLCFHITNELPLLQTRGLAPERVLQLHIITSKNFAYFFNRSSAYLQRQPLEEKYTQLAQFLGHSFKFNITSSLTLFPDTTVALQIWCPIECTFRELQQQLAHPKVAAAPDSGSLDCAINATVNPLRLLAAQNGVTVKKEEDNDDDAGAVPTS
Nature of the assay: co-IP; anti-FLAG IP of Cdc13 tagged with (FLAG)3 from yeast extracts, Est1 tagged with (myc)12.
With B4, the binding result is “binds”.
Same read-out and setting: the value for B5 was “binds”; that for B6 was “binds”; that for B7 was “binds”.
On the same count and under the same terms, as for B8, the entry is “binds”.
